According to PubChem BioAssay AID686978 (National Center for Advancing Translational Sciences (NCATS), 2013):
Hit rate of the full screen: of about 420,000 compounds, about 64,000 (15%) were called active. The inconclusive results got no clear call from the source; some entries with a clear call stand among them for comparison. Calls come from the whole dose curve; as a rule, active = well fitted inhibition curve with a large enough effect; inconclusive = small, poorly fitted or top-dose-only effect; inactive = flat fitted curve, though single readings scatter. Potencies of inconclusive entries are left out as doubtful fits.

Experiment: qHTS for Inhibitors of human tyrosyl-DNA phosphodiesterase 1 (TDP1): qHTS in cells in absence of CPT; note: nearly all actives have a fitted effect of over 55% in size
Details: DT40 Tdp1-/- hTDP1 cells, no CPT, ATP luminescence, 48 h; activity change, negative = growth inhibition: at 46.2 µM (top of the series) unless noted
How it was run: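 Readout: luminescence from CellTiter-Glo after 30 min in the dark at RT. Cells: DT40 Tdp1-/- with stable hTDP1, 400/well. Exposure: compounds alone, ≥48 hr, 37 °C.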
% is set by controls: 0 for no effect and ±100 for the full control effect; potency is the fitted concentration of half-maximal effect; tags give direction and shape of the fitted curve.

SMILES | activity change, negative = growth inhibition | Potency
O=C(NCC1CC1)C1(S(=O)(=O)c2ccccc2)CC=CC1 | inactive: 1.36% | 
CN(CCCC1CCCC1)C(=O)CCc1nnc(-c2ccccc2)o1 |  | inconclusive [inhibitor, single point]
COc1ccc(C(=O)CCC(=O)N2CCN(c3cccc(Cl)c3)CC2)cc1 |  | active: 23.1 µM
C[C@]12CC[C@@H](O)C[C@@H]1CC[C@@H]1[C@@H]2CC[C@]2(C)C=CC[C@@H]12 | inconclusive: -17% [inhibitor] | 
O=C(Nc1ccc(F)cc1)C1CCN(c2nc3ccccc3nc2C(F)(F)F)CC1 |  | inconclusive [inhibitor, full curve]
CC(C)(C)c1ccc(C(=O)C[n+]2ccc(Cl)c3ccc(Cl)cc32)cc1 |  | active: 0.355 µM
CC(C)CC(=O)Nc1ccc(C(=O)NNC(=O)C(c2ccccc2)c2ccccc2)cc1 | inactive: -29.9% | 
COC(=O)c1sc(N)c(C(=O)OC)c1Cn1ncc(Cl)c(Cl)c1=O |  | active: 14.6 µM
CCOCCCNC(=O)CNC(=S)N(Cc1ccc(C)cc1)Cc1ccco1 | inactive: -0.309% | 
COc1ccc(-c2noc(CC(=O)N(C)c3ccccc3F)n2)cc1 |  | inconclusive [inhibitor, single point]
c1ccc(Nc2cc(-c3ccccc3)nc3ncnn23)cc1 |  | inconclusive [inhibitor, single point]
S=C(NCCc1ccccc1)N1CCCCC1 | inactive: 14.3% | 
Cc1ccccc1C1c2[nH]c3ccccc3c2CCN1CCCn1cccn1 (stereo unspecified) |  | active: 13 µM
O=C(Nc1ccn(CCCN2CCN(c3ncccn3)CC2)c(=O)n1)OCc1ccccc1 |  | inconclusive [inhibitor, single point]
Cc1cc(-c2ccc(S(=O)(=O)Nc3ccccc3C)cc2)on1 |  | active: 4.61 µM
CCOc1cc(C2C3=C(CCCC3=O)Nc3ccc4ncccc4c32)ccc1O (stereo unspecified) |  | inconclusive [inhibitor, single point]
CC(C)Cn1c(SC(C)C(=O)Nc2ccc3c(c2)OCCO3)nc2ccccc2c1=O (stereo unspecified) |  | inconclusive [inhibitor, single point]
COc1ccc(N/C(=N\c2nc(C)cc(C)n2)NC(C)=O)cc1OC |  | inconclusive [inhibitor, single point]

SMILES | activity change, negative = growth inhibition | Potency
CN(C)CCNc1cccc2sc3ccc(O)cc3c(=O)c12 |  | active: 0.326 µM
COc1cccc(N2CCN(C(=O)/C=C/c3ccco3)CC2)c1 | inactive: -20.4% | 
O=C(CSc1nnc(-c2ccccn2)n1Cc1ccccc1)N1CCOCC1 | inactive: -2.93% | 
Cc1ccc(/C(=C/CN2CCCC2)c2ccccn2)cc1 |  | inconclusive [inhibitor, partial curve, poor fit]
CCOCCCN(C(=O)Cn1nnc(-c2ccc(C)o2)n1)C(C(=O)NCC1CCCO1)c1ccc(F)cc1 (stereo unspecified) | inactive: -7.11% | 
CN(Cc1ccccc1)C(=O)c1nn2cccnc2c1Cl |  | inconclusive [inhibitor, partial curve]
Cc1nn(CC(=O)NCCCN2CCC(Cc3ccccc3)CC2)c(=O)c2cc(-c3ccccc3)nn12 |  | active: 18.4 µM
COc1ccc(-c2cc(C)no2)cc1S(=O)(=O)NCC1CCN(Cc2cc(C)ccc2C)CC1 |  | inconclusive [inhibitor, single point]
CCCNc1nc(Nc2ccc([N+](=O)[O-])cc2)nc(N2CCOCC2)n1 |  | active: 14.1 µM
Cc1ccc(C(=O)Nc2ccc(N3CCOCC3)c3nonc23)cc1[N+](=O)[O-] |  | inconclusive [inhibitor, partial curve]
C#CCOCCOCCOCCNc1nc(N2CCN(C(=O)[C@H](Cc3ccc(O)cc3)n3cc(C(N)CC(C)C)nn3)CC2)nc(N2CCN(C(=O)[C@H](CCC(=O)O)n3cc(C(N)[C@H](C)CC)nn3)CC2)n1 (stereo partly specified) | inactive: -3.33% | 
CCc1nc2c(OCc3ccc(OC(F)F)cc3)cccn2c1N(C)C(=O)c1ccc(OC)cc1 |  | active: 13 µM
Cc1cccc(C)c1NC(=O)NC1(C(=O)NCCCN2CCOCC2)CCCCC1 | inactive: -5.64% | 
COc1ccc(-c2cc3c(=O)n(CC(=O)NCCCN4CCC(N5CCCCC5)CC4)nc(C)n3n2)cc1 |  | inconclusive [inhibitor, single point]
COc1cc(-c2ccno2)ccc1S(=O)(=O)N1CCN(c2cccc(Cl)c2)CC1 |  | inconclusive [inhibitor, single point]
CC1=C(C(=O)OC2CCCCC2)C(c2cccnc2)n2nnnc2N1 (stereo unspecified) |  | active: 11.6 µM
CC1(c2ccc3ccccc3c2)NC(=O)N(CC(=O)N2CCN(Cc3ccccc3)CC2)C1=O (stereo unspecified) |  | active: 4.61 µM
CCc1n[nH]c2c1/C(=N\O)CC(c1ccccc1)C2 (stereo unspecified) |  | active: 23.1 µM
